29 compounds from PubChem BioAssay AID1745853 (National Center for Advancing Translational Sciences (NCATS), 2022) can be followed below.

Holding throughout (test): Primary Screen for Target Class Profiling of Small Molecule Inhibitors of Methyltransferases
Experiment [1] has as its target Glycine N-methyltransferase (Homo sapiens) (UniProt Q14749). Particulars: purified enzyme, MTase-Glo SAH luminescence; measured here: GNMT inhibition; at 40 µM; stronger effect = lower value. The method in brief:
(§1)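 Each enzyme was assayed with SAM and its substrate. SAH formation detected by MTase-Glo luminescence; single-point 40 uM screen[…].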

Experiment [2] deals with Guanidinoacetate N-methyltransferase (Homo sapiens) (UniProt Q14353). Particulars: purified enzyme, MTase-Glo SAH luminescence; measured here: GAMT inhibition; at 40 µM; stronger effect = lower value. The method in brief: as §1
Experiment [3] concerns the target Histamine N-methyltransferase (Homo sapiens) (UniProt P50135). Particulars: purified enzyme, MTase-Glo SAH luminescence; measured here: HNMT inhibition; at 40 µM; stronger effect = lower value. An outline of the steps: as §1
The target of experiment [4] is Nicotinamide N-methyltransferase (Homo sapiens) (UniProt P40261). Conditions: purified enzyme, MTase-Glo SAH luminescence; measured here: NNMT inhibition; at 40 µM; stronger effect = lower value. The method in brief: as §1
For experiment [5], the target named is Phenylethanolamine N-methyltransferase (Homo sapiens) (UniProt P11086). Particulars: purified enzyme, MTase-Glo SAH luminescence; measured here: PNMT inhibition; at 40 µM; stronger effect = lower value. The method in brief:
as §1

Where “and” joins values, the source holds several entries; their conditions need not be identical. Identical values can stand only once. The list shows a part of the results. Shown are side measurements of this screen, not its main read-out; they come without a call.
% is set by controls: 0 for no effect and ±100 for the full control effect.

As to `O=S(=O)(c1cccnc1)N1CC(F)(F)C[C@H]1c1nc(C2CC2)no1`, the activity change, negative = inhibition in experiment [1] was 0.704%; in experiment [2], 0.544%; in experiment [3] it was 4.06%; in experiment [4], -2.98%; in experiment [5], -1.16%.
On to `Cc1ccccc1CNC(=O)C1(C)Cc2ccccc2C(=O)N1Cc1ccc(C(F)(F)F)cc1` (stereo not drawn), for which the activity change, negative = inhibition worked out at 13.8% in experiment [1]; 3.33% in experiment [2]; 9.69% in experiment [3]; 7.49% in experiment [4]; 9.1% in experiment [5].
For `C=CC(=O)Nc1cccc(CN2C(=O)N(c3c(Cl)c(OC)cc(OC)c3Cl)Cc3cnc(NCCCCN(CC)CC)nc32)c1`, in that order: -31.3%, -5.87%, -83.7%, -23.8% and -4.14%.
For `Cc1c(NC(=O)OC[C@@H]2COCCN2)cn2ncnc(Nc3ccc4c(cnn4Cc4cccc(F)c4)c3)c12`, the activity change, negative = inhibition in experiment [1] is -7.85% and -24%; in experiment [2], 16.9% and 23.2%; in experiment [3] it was -1.87% and -10.9%; in experiment [4], -20.2% and -37.1% and -13.5%; in experiment [5], 4.07% and -0.878% and -3.26%.
On to `COc1cccc(C(=O)N2CC3(Cc4ccccc4CN3[S+](C)(=O)[O-])C2)c1`, for which the activity change, negative = inhibition in experiment [1] is -7.42%; in experiment [2], -6.38%; in experiment [3], -1.13%; in experiment [4], -12.5%; in experiment [5], -7.69%.
Take `CC(=O)Nc1c2n(c3ccccc13)CC(C)(C(=O)NC1CCCC1)N(CCC1=CCCCC1)C2=O` (stereo not drawn): the activity change, negative = inhibition is -5.87% in experiment [1]; 0.577% in experiment [2]; -5.21% in experiment [3]; -4.7% in experiment [4]; -0.815% in experiment [5].
For `O=C(c1ccc(-c2ccc(Cl)cc2)o1)N(Cc1ccccn1)c1ccc(N2CCNCC2)cc1`, the values for the activity change, negative = inhibition in experiment [2], in experiment [4] and in experiment [5] were 15.1%, -25.1% and 1.65%, respectively.
For `CC1(C)C(=O)N(CC2CCOCC2)[C@H]2CN(Cc3cccnc3N)C[C@H]2[S+]1(=O)[O-]`, the activity change, negative = inhibition was -1.93% in experiment [1]; -0.249% in experiment [2]; -1.43% in experiment [3]; 0.802% in experiment [4]; -1.24% in experiment [5].
On the same counts, the results for `Cc1ccc(Cn2c(=O)c3ccc(C(=O)NC(C)C)cc3n3c(SCC(=O)NC(C)C)nnc23)cc1` are 6.46%, 0%, 10.4%, -6.05% and 1.59%.
For `O=C1CN(Cc2ccc(Br)cc2)S(=O)(=O)c2ccccc2N1Cc1cccc(F)c1`, in that order: -2.54%, 1.2%, -4.63%, -7.19% and -7.82%.
`CCOc1ccc(N(C(=O)c2cccnc2)S(=O)(=O)c2ccc3c(c2)n(C)c(=O)n3C)cc1`: the activity change, negative = inhibition was -1.97% in experiment [1]; 0.77% in experiment [2]; 2.8% in experiment [3]; -5.44% in experiment [4]; -3.7% in experiment [5].
Turning to `CC1(C(=O)NC2CCCCCC2)Cn2c(cc3ccccc32)C(=O)N1Cc1cccnc1` (stereo not drawn), the activity change, negative = inhibition in experiment [1] stood at 6.11%; in experiment [2], 1.31%; in experiment [3], 8.36%; in experiment [4], 2.93%; in experiment [5] it was 3.29%.
Regarding `O=c1cc(N2CCOCC2)oc2c(Nc3ccccc3)nccc12`, the activity change, negative = inhibition is -12.5% in experiment [1]; -15.8% in experiment [2]; -14.1% in experiment [3]; -44.2% in experiment [4]; -16.2% in experiment [5].
Turning to `CN1C(=O)c2cc(C(=O)NCCCN3CCCC3)nn2CC1(C)C(=O)NCc1ccccc1` (stereo not drawn), the activity change, negative = inhibition in experiment [1] came to 6.43%; in experiment [2], 0%; in experiment [3], 6.55%; in experiment [4], 10.2%; in experiment [5], 6.46%.
For `C[C@@H](c1ccccc1)N(C(N)=NC#N)c1cccc2ncccc12`, in that order: 6.24%, 2.81%, 11.4%, -6.53% and 5.85%.
For `O=C1CC2CCN(Cc3coc(-c4ccccc4)n3)CC2CCN1` (stereo not drawn), in that order: -3.39%, -0.689%, -3.31%, -0.309% and -5.43%.
On the same counts, the results for `Cn1c(COc2cccc(CN3CCCC3)c2Cl)nnc1C1CC(N)C1` (stereo not drawn) are -8.27%, -5.44%, -71.9%, -10.7% and -3.55%.
Take `CC(C)CNC(=O)c1ccc2c(=O)n(Cc3ccccc3)c3nn(CC(=O)c4ccccc4)c(=O)n3c2c1`: the activity change, negative = inhibition turned out to be 0.662% in experiment [1]; 6.23% in experiment [2]; 7.7% in experiment [3]; 1.42% in experiment [4]; 2.85% in experiment [5].
On the same counts, the results for `COC(=O)c1ncn2c1C(=O)N(c1ccc(OC)c(Cl)c1)C(C)(C(=O)NC1CCCC1)C2` (stereo not drawn) are -1.12%, 7.48%, -5.21%, -5.24% and -3.46%.
With `COc1ccc(-c2cc3n(n2)CC(C)(C(=O)NCc2ccccc2OC)N(CCC2=CCCCC2)C3=O)cc1` (stereo not drawn), the activity change, negative = inhibition in experiment [1] is -1.72%; in experiment [2], 2.92%; in experiment [3] it was -2.34%; in experiment [4], -6.57%; in experiment [5] it was -19.8%.
On the same counts, the results for `COc1nc2sc(C(=O)NC3CC3)c(N)c2c(C)c1Cl` are -11.5%, 2.45%, -3.78%, -15.5% and -2.57%.
Regarding `COc1c(-c2ccc(O)cc2)cc(OC)c2c1oc1cc(O)c(OC3OC(CO)C(O)C3O)cc12` (stereo not drawn), the activity change, negative = inhibition is -10.3% in experiment [1]; -6.11% in experiment [2]; -19.4% in experiment [3]; -16% in experiment [4]; -1.41% in experiment [5].
`C=C1CC[C@H](O)CC1=C/C=C1\CCC[C@]2(C)[C@@H]([C@H](C)/C=C/[C@H](C)C(C)C)CC[C@@H]12`: the activity change, negative = inhibition in experiment [1] was -12.2%; in experiment [2] it was 9.44%; in experiment [3] it was 8.73%; in experiment [4], -11.2%; in experiment [5] it was 1.57%.
Regarding `CCOC(=O)c1cc2n(n1)CC(C)(C(=O)NC1CCCCC1)N(c1cc(Cl)ccc1OC)C2=O` (stereo not drawn), the activity change, negative = inhibition in experiment [1] is 0.017%; in experiment [2], 0%; in experiment [3] it was -3.8%; in experiment [4], 3.03%; in experiment [5], 1.49%.
For `CCc1cccc2c(C(CC(=O)N3CCCCC3)c3cccc(OC)c3)c[nH]c12` (stereo not drawn), in that order: -7.62%, -16.2%, -5.86%, -23.5% and -10.7%.
As for `O=C(N[C@@H]1CCOC[C@H]1Oc1cccc(F)c1)c1cnc2ccccn2c1=O`, the activity change, negative = inhibition in experiment [1] is -8.33%; in experiment [2], -9.6%; in experiment [3] it was -4.37%; in experiment [4], -17.6%; in experiment [5], -10.3%.
On the same counts, the results for `CN1C(=O)c2cc(NC(=O)c3ccccc3Cl)ccc2N2CCN=C12` are 1.55%, 0%, 8.07%, -0.993% and 5.49%.
In the case of `O=C(NC1CCN(c2nc3ncccc3o2)C1)c1ccccc1F` (stereo not drawn), the activity change, negative = inhibition is -5.8% in experiment [1]; -12.8% in experiment [2]; -5.48% in experiment [3]; -22.6% in experiment [4]; -10.6% in experiment [5].
With `CC(C)CCn1c(=O)c2ccccc2n2c(SCC(=O)NCc3ccccc3)nnc12`, the activity change, negative = inhibition in experiment [1] is 3.72%; in experiment [2], -5.53%; in experiment [3], 9.96%; in experiment [4], 0.274%; in experiment [5], 4.05%.
